The source of these data is PMC4336329 (PLoS ONE, 2015).

In all, about 310,000 compounds went through this assay and about 14,000 (4.5%) showed an effect of 50% or more. The effect is printed as a negative number. This is one part of the list.
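Also: peak tail current of the secondary pulse compared with the same well before compound.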

In the assay the target is human ether-à-go-go-related gene (hERG) potassium channel (human, UniProt Q12809). Kind of assay: primary screen, population patch clamp on CHO cells stably expressing hERG.
human ether-à-go-go-related gene (hERG) potassium channel, sequence (Q12809 whole entry, looked up): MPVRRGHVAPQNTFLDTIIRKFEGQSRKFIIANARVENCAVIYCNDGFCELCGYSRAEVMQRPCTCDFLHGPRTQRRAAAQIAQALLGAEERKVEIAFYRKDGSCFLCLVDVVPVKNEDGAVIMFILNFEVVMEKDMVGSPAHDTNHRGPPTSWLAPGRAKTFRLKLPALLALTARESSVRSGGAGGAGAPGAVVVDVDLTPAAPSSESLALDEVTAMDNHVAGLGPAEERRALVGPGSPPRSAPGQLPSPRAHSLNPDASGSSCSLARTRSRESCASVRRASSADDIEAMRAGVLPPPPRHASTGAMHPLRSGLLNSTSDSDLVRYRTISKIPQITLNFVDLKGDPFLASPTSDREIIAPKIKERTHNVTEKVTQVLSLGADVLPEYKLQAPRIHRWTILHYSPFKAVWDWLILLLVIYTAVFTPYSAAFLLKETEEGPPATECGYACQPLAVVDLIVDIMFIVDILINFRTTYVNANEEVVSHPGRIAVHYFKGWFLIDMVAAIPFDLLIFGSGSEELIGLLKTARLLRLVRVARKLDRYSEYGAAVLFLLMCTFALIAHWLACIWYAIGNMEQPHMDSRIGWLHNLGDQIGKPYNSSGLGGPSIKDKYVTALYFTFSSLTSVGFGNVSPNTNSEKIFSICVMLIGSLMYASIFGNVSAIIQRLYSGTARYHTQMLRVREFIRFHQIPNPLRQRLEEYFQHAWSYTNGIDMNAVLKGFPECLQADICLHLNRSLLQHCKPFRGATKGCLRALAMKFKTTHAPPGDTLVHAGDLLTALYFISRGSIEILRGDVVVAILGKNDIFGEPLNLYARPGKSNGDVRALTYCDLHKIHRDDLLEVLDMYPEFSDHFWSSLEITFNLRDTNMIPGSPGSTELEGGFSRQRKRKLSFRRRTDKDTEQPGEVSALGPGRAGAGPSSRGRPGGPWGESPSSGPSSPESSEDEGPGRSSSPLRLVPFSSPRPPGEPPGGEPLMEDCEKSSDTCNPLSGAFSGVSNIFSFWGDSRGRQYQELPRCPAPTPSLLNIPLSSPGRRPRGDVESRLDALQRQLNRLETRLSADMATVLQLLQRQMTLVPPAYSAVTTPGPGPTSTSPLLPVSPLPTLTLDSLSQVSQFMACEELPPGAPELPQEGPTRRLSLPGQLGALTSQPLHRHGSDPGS
As for `COc1ccc(CCNC(=O)CSc2nc3[nH]ncc3c(=O)n2-c2ccccc2Br)cc1OC`, the “hERG current change (%, negative = inhibition) at 10uM” value is 39.6%.
As for `Cc1cc(C(=O)Nc2nc3c(C)cccc3s2)c(C)o1`, the figure is 5.07%.
For the compound `Cc1cc(C)c2c(N)c(C(=O)N/N=C/c3cccnc3)sc2n1`, the “hERG current change (%, negative = inhibition) at 10uM” value is reported as 6.25%.
With `CC(C)n1c(O)c(N=NC(=O)C2COc3ccccc3O2)c2ccccc21` (centres unmarked), the “hERG current change (%, negative = inhibition) at 10uM” value was 12.4%.
Regarding `O=C(CCn1c(=S)[nH]c2ccccc2c1=O)NCC1CCCO1` (centres unmarked), the “hERG current change (%, negative = inhibition) at 10uM” value is recorded as -15%.
The value for `Nc1c(C(=O)c2ccccc2)sc2c1c(=O)[nH]c(=O)n2-c1ccccc1` was -28.9%; that for `CCN(CC)CCNC(=O)c1cn(CC)c2ccc(S(=O)(=O)N(C)C)cc2c1=O` was 11.1%.
Take `COc1ccc(/C=C(/NC(=O)c2ccccc2)C(=O)NCCCn2ccnc2)cc1OC`: the “hERG current change (%, negative = inhibition) at 10uM” value is given as 19%.
The value for `COC(CNC(=O)c1ccc(Cn2c(=S)[nH]c3cc4c(cc3c2=O)OCO4)cc1)OC` was 6.72%.
`O=C1/C(=C/c2cccnc2)SC(=S)N1Nc1ccccc1`: the “hERG current change (%, negative = inhibition) at 10uM” value was 6.02%.
As for `OCCCNc1nc(-c2ccc(Cl)cc2)nnc1-c1ccccc1`, the “hERG current change (%, negative = inhibition) at 10uM” value is listed as -40%.
On to `O=C1C(N2CCOCC2)=C(n2nnc3ccccc32)C(=O)c2ccccc21`, for which the “hERG current change (%, negative = inhibition) at 10uM” value is recorded as -11.9%.
As for `Cc1ccc(-n2ncc(C#N)c2/N=C/N(C)C)cc1`, the figure is 11.8%.
Turning to `O=[N+]([O-])c1nn(-c2ccccc2)n(O)c1=NCCc1ccccc1`, the “hERG current change (%, negative = inhibition) at 10uM” value is recorded as -13.6%.
In the case of `CN(CC1CCCO1)S(=O)(=O)c1ccc(C(=O)Nc2ccc(F)cc2)cc1` (centres unmarked), the “hERG current change (%, negative = inhibition) at 10uM” value worked out at 13%.
`O=C1NC2(CCCCCC2)C(=O)N1Cc1cccc(Cl)c1`: the “hERG current change (%, negative = inhibition) at 10uM” value is reported as -21.8%.
For the compound `COc1ccc(-c2nn(-c3ccccc3)cc2/C=N/Nc2ccc(Cl)c(C(=O)O)c2)cc1OC`, the “hERG current change (%, negative = inhibition) at 10uM” value came to 9.19%.
Take `CCOC(=O)N1CCN(/C=C(\C#N)c2nc3ccccc3s2)CC1`: the “hERG current change (%, negative = inhibition) at 10uM” value was -58.5%.
`COC(=O)CCC(=O)OC1(C)C(=O)C2=CN(CC3CC3)C(c3ccc(OC)cc3)=CC2=C(Br)C1=O` (centres unmarked): the “hERG current change (%, negative = inhibition) at 10uM” value was 4.74%.
Consider `COc1ccccc1CNC(=O)Cc1c[nH]c2ccccc12`, for which the “hERG current change (%, negative = inhibition) at 10uM” value is listed as 15.3%.
Turning to `CN(C)/C=N/S(=O)(=O)c1ccc(Cl)c(Cl)c1`, the “hERG current change (%, negative = inhibition) at 10uM” value is given as -33.8%.
Turning to `CCCOC(=O)c1ccc(NC(=O)c2ccoc2C)cc1`, the “hERG current change (%, negative = inhibition) at 10uM” value is reported as -1.85%.
As to `O=C(COC(=O)Cc1ccccc1)Nc1ccc(Cl)cn1`, the “hERG current change (%, negative = inhibition) at 10uM” value was 17.6%.
Regarding `Oc1ccc(C[C@@H]2CNCCN2CCC23CC4CC(CC(C4)C2)C3)cc1`, the “hERG current change (%, negative = inhibition) at 10uM” value was -32.6%.
Consider `Nc1ncnc(Nc2ccc(F)cc2)n1`, for which the “hERG current change (%, negative = inhibition) at 10uM” value was 5.46%.
`COc1ccc(-c2csc(NC(=O)CSCc3c(C)noc3C)n2)cc1OC`: the “hERG current change (%, negative = inhibition) at 10uM” value is recorded as -4.4%.
As for `CCC1=NN(S(=O)(=O)c2ccc(C)cc2)C(O)(C(F)(F)F)C1` (centres unmarked), the figure is 34.4%.
As for `CCOC(=O)C1=C(C)OC(N)=C(C(=O)OCC)C12C(=O)Nc1ccc(Br)cc12` (centres unmarked), the “hERG current change (%, negative = inhibition) at 10uM” value is -7.78%.
As to `CCCCNC(=O)CN1C(=O)COc2ccc(S(=O)(=O)N3CCCCCC3)cc21`, the “hERG current change (%, negative = inhibition) at 10uM” value is reported as -1.25%.
For `CC1(C)c2ccccc2N2CC(=O)N(CC(N)=O)C21C` (centres unmarked), the “hERG current change (%, negative = inhibition) at 10uM” value is reported as 0.123%.
As to `O=C(NCc1ccc(Cl)cc1)c1ccc(CS(=O)Cc2cccc(Cl)c2)o1` (centres unmarked), the “hERG current change (%, negative = inhibition) at 10uM” value is -53.5%.
The value for `Cc1ccc(NS(=O)(=O)c2cccc(C(=O)NNC(=O)NC3CCCCC3)c2)c(C)c1` was -14.8%; that for `CS(=O)(=O)N1CCN(C(=O)c2cc(-c3cccnc3)nc3ccc(Br)cc23)CC1` was -17%; that for `Cc1cccc(NC(=S)N2CCN(c3ccc(F)cc3)CC2)c1` was 2.16%.
The value for `CCOc1cc2[nH]c(=O)n(CCCCC(=O)NCc3ccco3)c(=O)c2cc1OCC` was 8.55%; that for `CC1(C)C2CCC1(C)C(OC(=O)CCn1ccnc1)C2` (centres unmarked) was -25.5%; that for `CC(NC(=O)CSC(=S)N1CCCC1)c1ccc(S(N)(=O)=O)cc1` (centres unmarked) was 7.66%.
For `O=C(CNC(=O)c1cccs1)OCc1c(F)cccc1Cl`, the “hERG current change (%, negative = inhibition) at 10uM” value is 12.8%.
As for `CC1CCCC(C)N1C(=O)COC(=O)c1nn(C)c(=O)c2ccccc12` (centres unmarked), the figure is 1.93%; as for `CCOC(=O)c1c(NC(=S)N2CCCCC2)sc2c1CCN(C(=O)OCC)C2`, -1.16%.
`COC(=O)/C=C/C(=O)Nc1ccc(O)c(Cl)c1`: the “hERG current change (%, negative = inhibition) at 10uM” value is reported as 8.61%.
`COc1ccccc1S(=O)(=O)Nc1cc(C)nn1-c1ccc(C)cc1`: the “hERG current change (%, negative = inhibition) at 10uM” value worked out at 3.18%.
With `O=C1C2C3C=CC(C4CC34)C2C(=O)N1Cc1ccccc1` (centres unmarked), the “hERG current change (%, negative = inhibition) at 10uM” value was 19.9%.
As for `CCOc1ccc(CNC(=O)CCC(=O)n2nc(C)c3ccccc32)cc1`, the figure is 8.16%.
For `Cc1cc(C)n2nc(S(=O)(=O)NCCc3ccccc3)nc2n1`, the “hERG current change (%, negative = inhibition) at 10uM” value turned out to be 0.291%.
For `CCC(C)c1ccc(NC(=O)N2CCN(C(=O)C3CCCO3)CC2)cc1` (centres unmarked), the “hERG current change (%, negative = inhibition) at 10uM” value is recorded as -5.31%.
Take `Cc1ccc(-c2nc(CSCC(=O)NCc3cccnc3)c(C)o2)cc1`: the “hERG current change (%, negative = inhibition) at 10uM” value is on record as -15.3%.
Consider `CN(C)S(=O)(=O)c1cc(C(=O)Nc2ccccc2C(=O)NC2CC2)ccc1Cl`, for which the “hERG current change (%, negative = inhibition) at 10uM” value is on record as -62.2%.
As to `CSc1nnc(NC(=O)c2ccc(S(=O)(=O)N3CCOCC3)cc2)s1`, the “hERG current change (%, negative = inhibition) at 10uM” value was found to be 9.98%.
Regarding `O=C(CCCOc1ccc(Cl)cc1Cl)NN1CCOCC1`, the “hERG current change (%, negative = inhibition) at 10uM” value is -1.05%.
`Cc1ccc2[nH]c(=O)c(C(c3nnnn3Cc3ccccc3)N3CCc4ccccc43)cc2c1` (centres unmarked): the “hERG current change (%, negative = inhibition) at 10uM” value is -15.7%.
As for `Cn1c(=O)c2c(SCC(=O)N3CCCC3)nc(CC(C)(C)C)nc2n(C)c1=O`, the figure is -22.6%; as for `Cc1ccc(C(C)C)c(OCC(=O)N2CCN(CC(=O)N3CCOCC3)CC2)c1`, 1.81%; as for `CN(C)S(=O)(=O)c1ccc(C(=O)Nc2ccccc2C(=O)NCCCN2CCOCC2)cc1`, -4.13%.
For the compound `COC(=O)CN1C(=O)NC2(CCCc3ccccc32)C1=O` (centres unmarked), the “hERG current change (%, negative = inhibition) at 10uM” value amounted to 0.795%.
As to `CN(C)S(=O)(=O)c1cccc(COC(=O)CN2C(=O)NC3(CCCC3)C2=O)c1`, the “hERG current change (%, negative = inhibition) at 10uM” value was -1.31%.
